Experimental data as given in the supplement of paper PMC3334620.
Over roughly 33,000 sequences, “E-score (-0.5 to 0.5)” has its median near -0.021; the highest 2% begin near 0.32. This is one part of the list.

Target: T1, Zap1 (UniProt P47043)
T1 sequence: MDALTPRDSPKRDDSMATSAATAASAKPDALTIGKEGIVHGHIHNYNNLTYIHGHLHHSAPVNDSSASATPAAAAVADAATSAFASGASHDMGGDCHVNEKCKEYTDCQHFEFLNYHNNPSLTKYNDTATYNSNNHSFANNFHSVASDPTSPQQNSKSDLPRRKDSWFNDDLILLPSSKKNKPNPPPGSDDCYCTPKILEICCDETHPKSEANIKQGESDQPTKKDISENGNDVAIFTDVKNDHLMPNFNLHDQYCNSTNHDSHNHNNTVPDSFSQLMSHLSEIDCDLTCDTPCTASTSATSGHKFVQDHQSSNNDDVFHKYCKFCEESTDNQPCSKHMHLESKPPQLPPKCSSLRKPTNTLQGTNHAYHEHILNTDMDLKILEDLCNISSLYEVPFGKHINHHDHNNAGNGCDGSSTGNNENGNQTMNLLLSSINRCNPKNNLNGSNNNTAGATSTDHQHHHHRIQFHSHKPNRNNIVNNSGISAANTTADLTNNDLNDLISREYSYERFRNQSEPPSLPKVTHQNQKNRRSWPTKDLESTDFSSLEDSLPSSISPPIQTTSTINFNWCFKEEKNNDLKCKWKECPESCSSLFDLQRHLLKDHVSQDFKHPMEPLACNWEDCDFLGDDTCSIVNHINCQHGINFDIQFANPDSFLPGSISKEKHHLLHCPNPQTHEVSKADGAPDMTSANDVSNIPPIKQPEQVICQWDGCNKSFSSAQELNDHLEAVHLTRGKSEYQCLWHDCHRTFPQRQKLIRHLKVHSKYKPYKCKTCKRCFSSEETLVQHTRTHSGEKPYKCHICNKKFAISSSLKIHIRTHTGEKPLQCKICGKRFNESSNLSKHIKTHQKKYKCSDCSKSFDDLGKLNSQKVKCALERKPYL
Experiment: PBM E-score (8-mer binding enrichment) (E-score (-0.5 to 0.5)); higher = stronger / more preferred TF binding; most listed sequences are background and not binding sites
Settings: protein concentration: 200 nM; construct: GST-full length
Method in brief: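 Masliner-normalised scans of fluorescent anti-GST signal were the basis for scoring. That signal came from GST-tagged yeast transcription factors applied at about 100-200 nM to double-stranded universal all-10-mer Agilent arrays on fresh or once-stripped slides. Each ungapped eight-base word, pooled with its reverse complement, received an E-score from the Universal PBM Analysis Suite.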

Row | Sequence | PBM E-score
1 | AAGGGGCT | -0.0319
2 | ACCATAGG | 0.212
3 | CGAAGTCG | 0.0486
4 | GAGTTAGA | -0.133
5 | AATAAAAA | 0.172
6 | GATGGTAA | 0.171
7 | GACAGAGA | -0.085
8 | CGACGTCG | -0.103
9 | GATTATCA | -0.0633
10 | AGTTGGCG | -0.202
11 | AGGTAGCA | 0.123
12 | ACATGCTA | -0.226
13 | CGAAGCCG | -0.168
14 | AGAGTCAA | -0.102
15 | AGCAATAT | 0.0713
16 | GGTAATAA | 0.338
17 | CTAATTAC | 0.0995
18 | ATGTACGG | -0.0798
19 | CTTGTGGA | 0.115
20 | CATGGGAA | -0.0139
21 | AAGGAGAC | -0.286
22 | CGCGTTTA | -0.0657
23 | ACTAAAGG | 0.275
24 | ATTCACAA | 0.254
25 | CCCCTTCC | -0.055

Row | Sequence | PBM E-score
26 | CGCACGCG | -0.166
27 | GAATGGGC | -0.098
28 | CAGAGCAC | -0.127
29 | GGGGGCAC | -0.149
30 | GATCTGGC | -0.121
31 | ATCGGTGG | 0.0296
32 | ATCCGATG | -0.0642
33 | ACCCATCA | 0.228
34 | AGGGCCCA | -0.127
35 | AACTGGCT | -0.31
36 | CGAAGGCC | -0.133
37 | AGAGCGGG | -0.0654
38 | AATAAATC | -0.103
39 | CCTAATCC | -0.00347
40 | AAAAGGCG | -0.138
41 | GATAAGGC | -0.231
42 | GAGTTGAA | -0.134
43 | GTCCCCTA | 0.12
44 | CTTCCCGC | -0.208
45 | CATACGAA | 0.107
46 | AGTGAACT | -0.00558
47 | GGTTTGAC | 0.0472
48 | CGTAGAAG | -0.141
49 | ATACGTGG | -0.199
50 | TAAATCCA | -0.0221

Row | Sequence | PBM E-score
51 | CTTCATTC | -0.104
52 | ACTACGAC | -0.0282
53 | ATATCTGG | -0.138
54 | CTCCGCAG | -0.0403
55 | CTCGCTCA | 0.0112
56 | GCATATAA | 0.0856
57 | CTGCCTTA | -0.356
58 | ATCGGATA | 0.103
59 | CACATTGC | -0.0466
60 | CACCCTAC | 0.328
61 | CTGGCGCC | -0.227
62 | CGTGATCC | -0.14
63 | CTGAGCTC | -0.0991
64 | CCCTAAAG | 0.247
65 | CGGGGAGA | -0.204
66 | TACCAGGA | 0.206
67 | AACCTCAG | 0.205
68 | AAGCAAGG | 0.141
69 | ATGTAGCA | -0.244
70 | TAAAGTCA | 0.0993
71 | CAAAAGAC | 0.0415
72 | AGAATCGG | -0.111
73 | CAAGGCCC | -0.113
74 | TTAGTGAA | 0.0447
75 | ACTATATG | -0.0676

Row | Sequence | PBM E-score
76 | GAGGATGC | -0.169
77 | GATGCCCA | -0.107
78 | CGCAAAAG | -0.105
79 | TATTGCAA | 0.249
80 | CGTACCTA | -0.117
81 | AGGGGAAT | 0.004
82 | GGAAGCAC | -0.125
83 | CATATCCC | -0.0103
84 | CGACTCAC | -0.178
85 | CTTAGAGA | -0.0526
86 | CTAGAGAA | 0.014
87 | GCCTTTCC | -0.132
88 | GCATATCA | -0.0474
89 | AAACCAAT | 0.19
90 | GCGTTAAA | 0.089
91 | GGAAACCC | 0.293
92 | GGGGAGAC | -0.235
93 | AACGTATT | -0.139
94 | AGCAGTAT | 0.0154
95 | CAACATGA | 0.146
96 | CAGCTAAA | 0.0244
97 | CTTCACGC | -0.0117
98 | CACAGTGC | -0.183
99 | CTCCCGAA | -0.34
100 | ATCCACTA | 0.0706

Row | Sequence | PBM E-score
101 | AAAATGCA | -0.0432
102 | AACTCAGA | 0.157
103 | CCTTTCCG | 0.122
104 | AACGTGAT | -0.0982
105 | CCATGGCG | 0.0904
106 | CCGATTGA | 0.123
107 | AGACGCCC | 0.0172
108 | AAATTTTA | 0.121
109 | GCGCCACA | -0.0206
110 | CCAAAATC | 0.123
111 | ATGTGCCA | -0.0682
112 | CCTATCCC | 0.121
113 | AATTACAG | 0.0745
114 | CTTAAAGC | 0.0143
115 | ATCCTGAG | -0.0542
116 | CCACTGGA | -0.115
117 | CCTCAACA | 0.0925
118 | TCCCAACA | 0.0262
119 | CGCTCAAG | -0.0493
120 | CGAAGCAA | -0.00093
121 | ACCCAGTC | -0.039
122 | CACACTGC | -0.158
123 | CAGTTCCA | 0.164
124 | AGTCCTAT | -0.0607
125 | GGACTTAA | -0.108

Row | Sequence | PBM E-score
126 | CGAACCAA | 0.183
127 | AAAGTTCG | 0.105
128 | AAAATCAC | 0.0718
129 | CCCGCGAG | 0.0782
130 | AAGGTGAA | 0.068
131 | AGTCAAGA | -0.161
132 | AACCGTAG | 0.0762
133 | ATTTGCTA | 0.0307
134 | AAAATTTT | 0.108
135 | GTAGAAAC | 0.0301
136 | CGAAAAAA | 0.237
137 | ATCCCAGC | -0.131
138 | CTTACCTC | 0.0904
139 | ACGCTGCG | -0.199
140 | CAAGGCCG | -0.00033
141 | AAGTAGTC | -0.0936
142 | CGCTGCAG | 0.0248
143 | TCAGAGGA | -0.107
144 | AGCCACTC | -0.23
145 | GGCATAGA | -0.0663
146 | GATGTTAC | -0.0218
147 | CCGTTTCC | -0.101
148 | CGTCCCTC | -0.171
149 | AAGTGGCT | -0.0519
150 | GCAGACTA | -0.222

Row | Sequence | PBM E-score
151 | CATGTTCG | 0.0797
152 | TAACGTGA | -0.124
153 | CCGAAAGC | -0.0793
154 | GGGATGGA | -0.254
155 | ATTGCATG | -0.0435
156 | GCTTTGTA | 0.149
157 | CCCTGCCC | -0.00322
158 | CAAGCCGC | -0.19
159 | AACGATCC | -0.159
160 | AGTAAATG | 0.174
161 | ACTTTGAG | 0.0948
162 | ACGGTACA | 0.213
163 | AATGGTCG | 0.0699
164 | AAGGGGGT | -0.271
165 | CAGTCCTC | -0.271
166 | ATCCCGTC | -0.108
167 | TCATGAGA | 0.0926
168 | CATGACGA | 0.00891
169 | CAAAGGAG | -0.175
170 | GACGGCCA | 0.0006
171 | AAACGTGT | -0.178
172 | ATAAAGAG | -0.118
173 | CACTGATG | -0.0195
174 | GCGCCGTA | -0.0278
175 | ACTTATAA | 0.136

Row | Sequence | PBM E-score
176 | TCTGAGAA | -0.0814
177 | ATAAGTCA | 0.161
178 | CAAGCCCG | -0.266
179 | AGTAGCAG | -0.0921
180 | ATCGCGAG | 0.13
181 | CCAATACA | -0.0592
182 | GATTGTAC | -0.134
183 | GAAGTTAC | 0.175
184 | CACCATAA | 0.0248
185 | TACCAGCA | 0.0701
186 | ATCATTCG | 0.0757
187 | GGGAGCAC | -0.166
188 | GTCTAGGA | -0.27
189 | AGGTGTGG | -0.182
190 | ACCTGTGA | 0.182
191 | GTATTTTA | 0.224
192 | AGATGGCG | -0.113
193 | AGATACGG | 0.0225
194 | TAAAGGGA | 0.145
195 | AAGTCCGA | -0.296
196 | GATATAGC | -0.0772
197 | CAATCGAA | 0.0619
198 | CAAGCCCA | -0.295
199 | GTTTCTCA | -0.0604
200 | TAGAGGCA | -0.0851

Row | Sequence | PBM E-score
201 | CACCATCA | -0.088
202 | AAGCTGGA | -0.0922
203 | AACTGGTG | 0.0774
204 | AAGAGACC | 0.129
205 | GGGATGTA | -0.0819
206 | CTCATGGA | 0.0246
207 | ATCCAATG | -0.237
208 | ACGACCGA | -0.116
209 | GTATTGAC | -0.0601
210 | GGGGAAAC | 0.0976
211 | GACACTCC | -0.118
212 | CCAGGAGC | -0.263
213 | GACACATC | 0.0208
214 | AAGAGCCA | -0.0471
215 | CCTTTTAA | 0.119
216 | CTGCGATA | 0.159
217 | AAGGGCAC | -0.0159
218 | GCATTGCA | -0.0539
219 | CGCGGCTA | 0.0396
